T1: cynomolgus EpCAM expressed on stably transfected CHO cells (cynomolgus monkey, UniProt Q1WER1 26-314 (rhesus entry))
T1 construct: also called Cyno EpCAM (CHO)
T1 sequence: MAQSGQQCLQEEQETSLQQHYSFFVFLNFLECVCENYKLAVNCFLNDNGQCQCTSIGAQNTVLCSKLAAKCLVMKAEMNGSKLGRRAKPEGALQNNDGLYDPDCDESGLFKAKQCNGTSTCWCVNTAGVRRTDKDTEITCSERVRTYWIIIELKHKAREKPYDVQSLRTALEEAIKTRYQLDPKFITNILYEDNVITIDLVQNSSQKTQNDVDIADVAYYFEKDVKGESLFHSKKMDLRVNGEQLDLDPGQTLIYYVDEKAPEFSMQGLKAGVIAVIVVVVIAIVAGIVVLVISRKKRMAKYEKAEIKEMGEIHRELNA

T2: cynomolgus EpCAM (Biacore) (cynomolgus monkey, limits assumed)
T2 construct: Construct used for the cyno Biacore measurements is not described; also called Cyno EpCAM (Biacore); cEpCAM
T2 chain: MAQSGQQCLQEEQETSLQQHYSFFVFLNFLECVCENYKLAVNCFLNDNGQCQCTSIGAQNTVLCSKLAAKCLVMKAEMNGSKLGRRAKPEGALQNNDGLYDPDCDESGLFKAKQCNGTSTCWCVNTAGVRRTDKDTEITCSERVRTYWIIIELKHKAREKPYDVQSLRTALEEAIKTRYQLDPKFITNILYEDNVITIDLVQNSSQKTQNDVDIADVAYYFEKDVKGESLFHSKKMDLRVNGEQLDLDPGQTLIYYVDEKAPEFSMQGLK

T3: human EpCAM-His (analyte of the Biacore experiments) (human, UniProt P16422 24-265)
T3 construct: also called Human EpCAM (Biacore); hEpCAM
T3 sequence: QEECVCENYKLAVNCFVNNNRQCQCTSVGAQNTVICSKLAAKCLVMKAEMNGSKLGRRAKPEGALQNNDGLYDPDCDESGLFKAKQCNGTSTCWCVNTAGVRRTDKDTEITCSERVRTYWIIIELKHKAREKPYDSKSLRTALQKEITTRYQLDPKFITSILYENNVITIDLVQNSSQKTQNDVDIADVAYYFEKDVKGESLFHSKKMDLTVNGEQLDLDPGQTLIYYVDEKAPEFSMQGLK

T4: human EpCAM expressed on cells (stably transfected CHO cells, HCT-116, JIMT1) (human, UniProt P16422 24-314)
T4 construct: also called Human EpCAM (CHO); Human EpCAM (HCT-116)
T4 sequence: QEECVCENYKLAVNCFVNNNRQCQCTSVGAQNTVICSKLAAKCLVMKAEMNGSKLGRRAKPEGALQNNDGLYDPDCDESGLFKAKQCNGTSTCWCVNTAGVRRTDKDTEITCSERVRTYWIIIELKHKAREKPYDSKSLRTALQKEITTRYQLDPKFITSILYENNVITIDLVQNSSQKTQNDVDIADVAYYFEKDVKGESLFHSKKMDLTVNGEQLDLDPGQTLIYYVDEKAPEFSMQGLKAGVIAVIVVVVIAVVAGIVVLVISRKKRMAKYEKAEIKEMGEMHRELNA

T5: human EpCAM protein adsorbed on the plate (ELISA) (human, UniProt P16422 24-265)
T5 construct: also called Human EpCAM (ELISA); recombinant human EpCAM extracellular domain (ECD)
T5 sequence: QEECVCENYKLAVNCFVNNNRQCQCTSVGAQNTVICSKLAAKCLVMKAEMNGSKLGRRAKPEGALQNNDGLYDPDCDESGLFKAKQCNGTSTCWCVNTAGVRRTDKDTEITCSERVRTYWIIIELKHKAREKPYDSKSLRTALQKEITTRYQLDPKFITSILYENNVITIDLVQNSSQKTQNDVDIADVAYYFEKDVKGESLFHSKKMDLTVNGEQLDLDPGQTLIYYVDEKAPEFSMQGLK


What was measured:
[1] = target: T1, cynomolgus EpCAM expressed on stably …; test: flow cytometry, CHO cells expressing cyno EpCAM
Experimental: (§1) CHO-k cells were transfected to stably express EpCAM on the cell surface. CHO parental and stably transfected CHO-EpCAM (human, cynomolgus and mouse EpCAM-expressing cells) cells were washed with DPBS, detached with Accutase™ (BD Biosciences; San Jose, Calif.), and resuspended in ice-cold FACS buffer (DPBS buffer supplemented with 0.5% bovine serum albumin).
(§2) A total of 200,000 cells per 96-well were incubated on ice for 60 mins with 100 nM of test antibodies diluted in FACS buffer. Cells were washed twice with FACS buffer and incubated on ice for 30 mins with R-phycoerythrin AffiniPure F(ab′)₂ fragment, goat anti-Human IgG, Fcγ fragment specific secondary detection antibody (Jackson ImmunoResearch Laboratories, West Grove, Pa.) diluted at 1:200 with FACS buffer. Cells were washed twice with FACS buffer, fixed in 4% paraformaldehyde in PBS (Santa Cruz Biotechnology; Dallas, Tex.) for 20 mins on ice in the dark, washed twice with FACS buffer and analyzed using the BD LSR II Flow Cytometer (BD Biosciences; San Jose, Calif.). Data were analyzed using FlowJo (FlowJo, LLC; Ashland, Oreg.) to determine mean fluorescence intensities. Binding constants were calculated using the statistical software, GraphPad Prism (GraphPad Software; La Jolla, Calif.) using the nonlinear regression equation, one site-specific binding with Hill slope. Secondary antibody alone was used as a control, in addition to measuring non-specific EpCAM antibody binding to CHO parental cells. For some variants, binding to human tumor cells, HCT 116 and JIMT1 cells were also evaluated.

[2] = target: T2, cynomolgus EpCAM (Biacore); test: SPR (Biacore), cyno EpCAM
[3] = target: T3, human EpCAM-His (analyte of the Biacore …); test: SPR (Biacore), scFv-Fc captured on anti-FLAG, human EpCAM-His as analyte, 25 C
Experimental: Monoclonal Anti-FLAG M2 IgG (Sigma-Aldrich # F9291) was immobilized onto a CMS chip (GE Life Sciences) using amine coupling chemistry (from Amine Coupling Kit, GE Life Sciences). The immobilization steps were carried out at a flow rate of 25 μL/min in 1×HBS-EP+ buffer (GE Life Sciences; 10× Stock diluted before use). The sensor surfaces were activated for 7 min with a mixture of NHS (0.05 M) and EDC (0.2 M). The Anti-Flag M2 IgG was injected over all 4 flow cells at a concentration of 25 μg/mL in 10 mM sodium acetate, pH 4.5, for 7 min. Ethanolamine (1 M, pH 8.5) was injected for 7 min to block any remaining activated groups. An average of 12,000 response units (RU) of capture antibody was immobilized on each flow cell.
Off-rate and Kinetic binding experiments were performed at 25° C. using 1×HBS-EP+ buffer. Test and control antibodies were injected over the Anti-FLAG surface at concentrations of 5-10 μg/mL for 12 seconds at a flow rate of 10 μL/min on flow cells 2, 3 and 4, followed by a buffer wash for 30 seconds at the same flow rate. Kinetic characterization of antibody samples was carried out with a single concentration of antigen (for off-rate ranking) or a 1:2 dilution series of antigen (for kinetic characterization) and 1 injection of 0 nM antigen. After capturing ligand (antibody) on the anti-FLAG surface, the analyte (human EpCAM-His) was bound at 50, 25, 12.5, 6.25 and 0 nM for 180 seconds, followed by a 600 second dissociation phase at a flow rate of 50 μl/min. Between each ligand capture and analyte binding cycle, regeneration was carried out using 2 injections of 10 mM glycine pH 2.0 for 30 seconds at 30 μL/min, followed by a 30 second buffer wash step.
The data were fit with the Biacore T200 Evaluation software, using a 1:1 Langmuir binding model. KD (affinity, nM) was determined as a ratio of the kinetic rate constants calculated from the fits of the association and dissociation phases.

[4] = target: T4, human EpCAM expressed on cells (stably …); test: flow cytometry, CHO cells expressing human EpCAM
Experimental: as §1, §2

[5] = target: T5, human EpCAM protein adsorbed on the …; test: ELISA, human EpCAM adsorbed on plate, anti-human Fc-HRP

Binder	Kd [1] [nM]	Kd [2] [nM]	Kd [3] [nM]	koff [3] [s⁻¹]	kon [3] [M⁻¹ s⁻¹]	Kd [4] [nM]	EC50 [5] [nM]
SRP1557-H04 scFv-Fc antibody (Fc fusion, scFv-Fc format; the entry holds scFv, IgG1 Fc, FLAG and His tags) MEVQLLESGGGLVQPGGSLRLSCAASGFTFSVTSMSWMRQAPGKGLEWVGAIAGGEGSTGYADSVKGRFTISRDNSKNTLYLQMNSLRAEDTAVYYCAKGWHPQTLYDLDYWGQGTLVTVSSGGGGSDGGGSGGGGSEIVLTQGPSTLSLSPGERATLSCRASQSVSTGYLAWYQQKPGQAPRLLIYGASSRATGIPDRFSGSGSGTDFTLTISRLEPEDFAVYYCQQLVTRPPTFGQGTKVEIKAAGSDQ[letters of human IgG1 Fc with changes omitted]GSGDYKDDDDKGSGHHHHHH	0.87	7.22	2.54	0.000787	310000	1.89	
SRP1557-H10 scFv-Fc antibody (Fc fusion, scFv-Fc format; the entry holds scFv, IgG1 Fc, FLAG and His tags) MEVQLLESGGGLVQPGGSLRLSCAASGFTFSGSSMSWVRQAPGKGLEWVGAIDGGEGSTGYADSVKGRFTISRDNSKNTLYLQMNSLRAEDTAVYYCAKGWHPQSMYDLDYWGQGTLVTVSSGGGGSGGGGSGGGGSEIVLTQSPGTLSLSPGERATMSCRASQVLSSSSLAWYQQKPGQAPRLLIYGASSRATGIPDRFSGSGSGTDFTLTISRLEPEDFAVYYCQQLVTAPPTFGQGTKVEIKAAGSDQ[letters of human IgG1 Fc with changes omitted]GSGDYKDDDDKGSGHHHHHH	0.99	35.2	1.19	0.000306	257000	2.59	
SRP1332-A05 scFv-Fc antibody (Fc fusion, scFv-Fc format (VL-VH order); the entry holds scFv, IgG1 Fc, FLAG and His tags) MELVMTQSPSSLTVTAGEKVTMSCKSSQSLLNSGNQKNYLTWYQQKPGQPPKLLIYWASTRESGVPDRFTGSGSGTDFTLTISSVQAEDLAVYYCQNDLSYPLTFGAGTKLEIKGGGGSGGGGSGGGGSEVQLLEQSGAELVRPGTSVKISCKASDYAFANRWLGWVKQRPGHGLEWIGDIFPGSGNIHYNEKFKGKATLTADKSSSTAYMQLSSLTFEDSAVYFCARLRNWEGPMDYWGQGTTVTVSSAAGSDQ[letters of human IgG1 Fc with changes omitted]GSGDYKDDDDKGSGHHHHHH			1.45	0.000297	205000	2	0.47
SRP1332-C01 scFv-Fc antibody (Fc fusion, scFv-Fc format (VL-VH order); the entry holds scFv, IgG1 Fc, FLAG and His tags) MELVMTQSPSSLTVTAGEKVTMSCKSSQSLLNSGNQKNYLTWYQQKPGQPPKLLIYWASTRESGVPDRFTGSGSGTDFTLTISSVQAEDLAVYYCQNDYRYPLTFGAGTKLEIKGGGGSGGGGSGGGGSEVQLLEQSGAELVRPGTSVKISCKASGYAFTNSWLGWVKQRPGHGLEWIGDIFPGSGNIHYNEKFKGKATLTADKSSSTAYMQLSSLTFEDSAVYFCARLRNWDMPMDYWGQGTTVTVSSAAGSDQ[letters of human IgG1 Fc with changes omitted]GSGDYKDDDDKGSGHHHHHH			0.904	0.000257	284000	1.6	0.33
SRP1332-F11 scFv-Fc antibody (Fc fusion, scFv-Fc format (VL-VH order); the entry holds scFv, IgG1 Fc, FLAG and His tags) MELVMTQSPSSLTVTAGEKVTMSCKSSQSLLNSGNQKNYLTWYQQKPGQPPKLLIYRASTRESGVPDRFTGSGSGTDFTLTISSVQAEDLAVYYCQNDSSYPLTFGAGTKLEIKGGGGSGGGGSGGGGSEVQLLEQSGAELVRPGTSVKISCKASGYAFANRWLGWVKQRPGHGLEWIGDIFPGSGNIHYNEKFKGKATLTADKSSSTAYMQLSSLTFEDSAVYFCARLRNWEGPMDYWGQGTTVTVSSAAGSDQ[letters of human IgG1 Fc with changes omitted]GSGDYKDDDDKGSGHHHHHH			1.41	0.000257	182000	1.14	0.47
SRP1557-E11 scFv-Fc antibody (Fc fusion, scFv-Fc format; the entry holds scFv, IgG1 Fc, FLAG and His tags) MEVQLLESGGGLVQPGGSLRLSCAASGFTFRGSSMSWVRQAPGKGLEWVGAIDGGEGSTGYADSVKGRFTINRDNSKNTLYLQMNSLRAEDTAVYYCAKGWHPQSLYDLDYWGQGTLVTVSSGGGGSGGGDSGGGGSEIVLTQSPGTLSLSPGERATLSCRASQPVPNTTLAWYQQKPGQAPRLLIYGASSRATGIPDRFSGSGSGTDFTLTISRLEPEDFAAYYCQQLVPSPPTFGQGTKVEIKAAGSDQ[letters of human IgG1 Fc with changes omitted]GSGDYKDDDDKGSGHHHHHH	1.07	45.2	3.44	0.000604	176000	1.69	
SRP1557-F01 scFv-Fc antibody (Fc fusion, scFv-Fc format; the entry holds scFv, IgG1 Fc, FLAG and His tags) MEVQLLESGGGLVQPGGSLRLSCAASGFTFSGSSMSWVRQAPGKGLEWVGAIDGGEGSTGYADSVKGRFTISRDNSKNTLYLQMNSLRAEDTAVYYCAKGWHPQTLYDLDYWGQGTLVTVSSGGGGSGGGGSGGGGSEIVLTQSPGTLSLSPGERATLSCRASQSVSSSKLAWYQQKPGQAPRLLIYGASSRATGIPDRFSGYGSGTDFTLTISRLEPEDFAVYYCQQLETIPPTFGQGTKVEIKAAGSDQ[letters of human IgG1 Fc with changes omitted]GSGDYKDDDDKGSGHHHHHH	1.21	1.17	7.21	0.00169	235000	1.96	

— patent US20190002581A1 (SUTRO BIOPHARMA, published 2019)
